Consider 90 compounds from PMC4336329 (PLoS ONE, 2015).

About 2,200 (0.71%) of roughly 310,000 compounds showed an effect of 50% or more. Effects have a minus sign here. The list shows a part of the results.

This experiment deals with human ether-à-go-go-related gene (hERG) potassium channel (human, UniProt Q12809). The experiment in a line: primary screen, population patch clamp on CHO cells stably expressing hERG.
human ether-à-go-go-related gene (hERG) potassium channel, sequence (Q12809 whole entry, looked up): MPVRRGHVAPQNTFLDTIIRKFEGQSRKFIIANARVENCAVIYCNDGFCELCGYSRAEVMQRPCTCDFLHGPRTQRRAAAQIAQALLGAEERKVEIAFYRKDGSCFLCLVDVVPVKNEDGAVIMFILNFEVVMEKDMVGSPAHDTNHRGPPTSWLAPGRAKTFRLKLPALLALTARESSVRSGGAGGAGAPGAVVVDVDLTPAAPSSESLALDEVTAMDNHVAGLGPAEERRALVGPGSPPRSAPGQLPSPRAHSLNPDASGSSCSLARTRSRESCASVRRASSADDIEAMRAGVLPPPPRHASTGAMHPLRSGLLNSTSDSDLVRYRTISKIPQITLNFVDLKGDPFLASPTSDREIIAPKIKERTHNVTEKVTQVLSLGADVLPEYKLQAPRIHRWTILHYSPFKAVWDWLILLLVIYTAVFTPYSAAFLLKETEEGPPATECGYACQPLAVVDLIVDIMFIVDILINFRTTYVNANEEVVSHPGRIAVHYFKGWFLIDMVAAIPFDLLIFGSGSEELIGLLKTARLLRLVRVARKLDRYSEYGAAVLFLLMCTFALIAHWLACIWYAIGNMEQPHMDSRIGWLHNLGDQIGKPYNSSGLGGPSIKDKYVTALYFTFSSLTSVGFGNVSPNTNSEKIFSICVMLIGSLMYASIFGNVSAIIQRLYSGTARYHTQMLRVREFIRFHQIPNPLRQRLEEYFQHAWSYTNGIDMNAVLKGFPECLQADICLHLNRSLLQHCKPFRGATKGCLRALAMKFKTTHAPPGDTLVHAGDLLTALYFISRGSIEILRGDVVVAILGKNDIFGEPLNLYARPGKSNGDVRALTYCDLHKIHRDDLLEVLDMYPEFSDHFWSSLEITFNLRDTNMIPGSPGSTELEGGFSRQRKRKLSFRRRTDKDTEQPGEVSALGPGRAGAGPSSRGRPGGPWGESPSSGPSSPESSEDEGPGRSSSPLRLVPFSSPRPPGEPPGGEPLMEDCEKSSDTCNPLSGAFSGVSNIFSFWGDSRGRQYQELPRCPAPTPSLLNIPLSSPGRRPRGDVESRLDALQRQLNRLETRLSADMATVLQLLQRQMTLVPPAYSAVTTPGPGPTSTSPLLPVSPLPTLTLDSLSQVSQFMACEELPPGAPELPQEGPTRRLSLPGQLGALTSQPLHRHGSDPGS
Regarding `CCc1noc(C)c1C(=O)OCC(=O)N(CC)c1c(N)n(Cc2ccccc2)c(=O)[nH]c1=O`, the “hERG current change (%, negative = inhibition) at 1uM” value amounted to 13.3%.
The same measure for `O=C1CCC(C(=O)N2CCCC2)CN1Cc1cccc(C(F)(F)F)c1` (stereo not drawn): 14.3%.
The same measure for `CCOC(=O)C1=C2N(C)c3ccccc3N2CCC1=O`: 6.37%; for `CCC(NC(C)C)C(O)c1ccc(O)c2[nH]c(=O)ccc12.Cl` (stereo not drawn): 8.22%.
As to `O=C1COc2ccc(C(=O)COC(=O)c3cccnc3Cl)cc2N1`, the “hERG current change (%, negative = inhibition) at 1uM” value was 13.9%.
Consider `COc1ccccc1NC(=S)Nc1ccccn1`, for which the “hERG current change (%, negative = inhibition) at 1uM” value stood at 10.9%.
The same measure for `CC1(C)CC2CC(C)(CN2C(=O)c2ccc([N+](=O)[O-])cc2)C1` (stereo not drawn): -5.6%.
With `COc1ccc(C(=O)c2ccc(N(C)C)cc2)c2ccccc12`, the “hERG current change (%, negative = inhibition) at 1uM” value is listed as 15%.
The same measure for `COc1ccccc1-c1c(NC(=O)c2ccco2)n(C)c2ccccc2c1=O`: 15.3%.
In the case of `c1ccc(-c2nnnn2-c2ccccc2)cc1`, the “hERG current change (%, negative = inhibition) at 1uM” value worked out at 12.4%.
The same measure for `O=C(O)Cn1c(O)c(C=Nc2ccccc2)sc1=S` [4242532]: 13.9%; for `COc1cc(OC)cc(C(=O)NCCNC(=O)c2ccco2)c1`: 8.2%; for `Cc1sc2nc(C3CC3)nc(NCCNS(C)(=O)=O)c2c1C`: 11.6%.
`CSCC[C@H](NC(=O)Cc1ccc(Cl)cc1)C(=O)N1CCC2(CC1)NCCc1[nH]cnc12`: the “hERG current change (%, negative = inhibition) at 1uM” value is listed as 6.03%.
The same measure for `Cc1cc(NC(=O)CSc2nnc(CNC(=O)c3cccc(C(F)(F)F)c3)o2)no1`: 8.69%.
The same measure for `COCCn1c(=N)c(C(=O)NCCc2ccc(OC)cc2)cc2c(=O)n3cccc(C)c3nc21`: -95.4%.
As to `Cc1cc(C)cc(OCc2nnc(SCC(=O)OC(C)C)o2)c1`, the “hERG current change (%, negative = inhibition) at 1uM” value came out at 14.5%.
Consider `O=C(NCc1ccccc1Cl)NC(=O)c1ccccc1`, for which the “hERG current change (%, negative = inhibition) at 1uM” value was 9.35%.
The same measure for `COC(=O)Nc1nnc(Cc2ccccc2)s1`: 5.95%.
The same measure for `Cc1cccc(NS(=O)(=O)Cc2ccccc2)c1C`: 29.7%; for `C[N+](C)(C)CCCC(=O)c1ccc2c(c1)OCO2.[Cl-]`: 12.2%; for `CCOC(=O)C1=C(c2ccccc2)ON(C)C1c1ccccc1` (stereo not drawn): 3.7%.
The same measure for `N=c1c2c(-c3ccccc3)c(-c3ccccc3)n(Cc3ccccc3)c2ncn1CCCn1ccnc1`: -32%; for `CC(=O)N1CCN(c2ccc(NCc3cccc(C)c3)cc2)CC1`: 15.7%.
With `CSCCC(NC(=O)c1cccc(C)c1)C(=O)Nc1sccc1C(N)=O` (stereo not drawn), the “hERG current change (%, negative = inhibition) at 1uM” value was 16.1%.
`CCn1c(=O)cc(SCC(=O)N2CCN(Cc3ccc4c(c3)OCO4)CC2)c2ccccc21`: the “hERG current change (%, negative = inhibition) at 1uM” value came out at 10.1%.
The same measure for `CCCc1cc(C(F)(F)F)c(C#N)c(=O)[nH]1`: 9.03%.
The same measure for `Cc1ccc(N/C(SCc2ccccc2C)=C(/C#N)C(=O)NCc2ccco2)cc1C`: 10%; for `Cc1nc(CCNC(=O)COc2ccccc2)cs1`: 17%; for `CCOc1ccc(-c2noc(CCCC(=O)NCC3CCCO3)n2)cc1OC` (stereo not drawn): 9.51%.
For `COc1cccc(NC(C)(C)c2nnnn2-c2c(C)cccc2C)c1`, the “hERG current change (%, negative = inhibition) at 1uM” value is given as -16.4%.
With `O=C(CSc1nccc(-c2cccs2)n1)Nc1cccc(Cl)c1`, the “hERG current change (%, negative = inhibition) at 1uM” value was found to be 8.96%.
On to `C#CCn1c(=NC(=O)c2cc(-c3cccs3)nc3ccccc23)sc2cc(S(N)(=O)=O)ccc21`, for which the “hERG current change (%, negative = inhibition) at 1uM” value was 10.9%.
On to `CCCn1c(C)cc(C(=O)COC(=O)c2cc(S(=O)(=O)NCC(C)C)c(Cl)cc2Cl)c1C`, for which the “hERG current change (%, negative = inhibition) at 1uM” value was 3.71%.
For the compound `CCCCN(C(=O)CSc1nnc(-c2ccc(Cl)cc2)o1)c1c(N)n(CC(C)C)c(=O)[nH]c1=O`, the “hERG current change (%, negative = inhibition) at 1uM” value is on record as 5.4%.
With `CCOC(=O)Cc1csc(NC(=O)Nc2ccccc2)n1`, the “hERG current change (%, negative = inhibition) at 1uM” value is 8.05%.
As to `CC(C(=O)OCC(=O)c1c(N)n(C)c(=O)n(C)c1=O)N1C(=O)c2ccccc2C1=O` (stereo not drawn), the “hERG current change (%, negative = inhibition) at 1uM” value stood at 2.68%.
On to `CCOC(=O)C1CCCCN1Cc1cc(Cl)ccc1O` (stereo not drawn), for which the “hERG current change (%, negative = inhibition) at 1uM” value was 4.99%.
The same measure for `CCOC(=O)c1cc(-c2ccccc2)nn1-c1ccccn1`: -6.29%.
The same measure for `CCc1nc(SCC(=O)O)c(C#N)cc1C`: 10.7%; for `N#Cc1c(N)n(CCNC(=O)c2ccc(Cl)cc2)c2nc3ccccc3nc12`: 15.6%.
The same measure for `O=C1CC2CS(=O)(=O)CC2N1c1ccc(Cl)cc1Cl` (stereo not drawn): 7.74%.
On to `Oc1ccc(-c2csc(Nc3ccccn3)n2)cc1`, for which the “hERG current change (%, negative = inhibition) at 1uM” value is 14.1%.
The same measure for `O=c1cc(-c2ccccc2)nc(SCc2ccc(F)cc2)[nH]1`: 6.34%; for `Nc1nc(COc2ccc(F)cc2Cl)nc(N2CCCCC2)n1`: 10.5%.
The same measure for `COc1cccc(-c2csc(N3CCN(C(=S)Nc4ccc(Cl)cc4)CC3)n2)c1`: 10.6%.
The same measure for `Cc1ccccc1NC(=O)CSc1nnnn1C`: 6.2%; for `CC(=O)c1cccc(OCc2cc(C(=O)N3CC4C[C@@H]5CC3C[C@H](C4)C5)no2)c1`: 10.7%.
On to `CN(C)c1oc(/C=C/c2cccs2)nc1S(=O)(=O)c1ccccc1`, for which the “hERG current change (%, negative = inhibition) at 1uM” value came out at 12.7%.
Consider `Cc1ccc(CSCCC(=O)NCCc2ccc(Cl)cc2)cc1`, for which the “hERG current change (%, negative = inhibition) at 1uM” value is given as -0.998%.
Take `Cc1cc(C)cc(N(C(=O)c2csnn2)C(C(=O)NC2CCCCC2)c2cccnc2)c1` (stereo not drawn): the “hERG current change (%, negative = inhibition) at 1uM” value is reported as 12.8%.
The same measure for `CCNC(=S)NCc1ccc(OC)c(OC)c1`: 10.5%.
For the compound `FC(F)(F)c1cc(-c2ccco2)nc(N2CCN(c3ccccc3)CC2)n1`, the “hERG current change (%, negative = inhibition) at 1uM” value is 8.68%.
The same measure for `CSC1=C(C#N)C(c2ccc(C)s2)CC(=O)N1` (stereo not drawn): 2.6%; for `COc1ccc(CC(=O)Nc2ccc(NC(=O)c3ccc(Br)cc3)cc2)cc1OC`: 14.3%.
`O=C(c1cc(=O)c2ccccc2o1)N(Cc1ccccc1)C1CCS(=O)(=O)C1` (stereo not drawn): the “hERG current change (%, negative = inhibition) at 1uM” value was 6.66%.
The same measure for `CCn1c(SCc2ccc([N+](=O)[O-])cc2)nnc1C(C)NC(=O)c1ccc(C)cc1` (stereo not drawn): 0.444%.
Turning to `O=C(CN1N=C(c2ccccc2)CCC1=O)NCCCN1CCc2ccccc2C1`, the “hERG current change (%, negative = inhibition) at 1uM” value is listed as -7.4%.
`CC(C)S(=O)(=O)c1csc(C(=O)NN)c1Cl`: the “hERG current change (%, negative = inhibition) at 1uM” value is listed as 3.32%.
The same measure for `COc1ccc(C)cc1NC(=O)C(=O)NNC(=O)COc1ccc(Cl)cc1`: 13.4%; for `c1csc(-c2nc(N3CCCCC3)no2)c1`: 17.1%.
Regarding `COc1cc(NC(=S)N2CCCCC2C)c(OC)cc1Cl` (stereo not drawn), the “hERG current change (%, negative = inhibition) at 1uM” value was 3.94%.
The same measure for `Cc1ccc(S(=O)(=O)NCC(=O)N(CC(=O)NC2CCCCC2)CC2CCCO2)cc1` (stereo not drawn): 8.24%; for `Cc1nc(-c2ccc(Cl)cc2)sc1C(=O)CBr`: 5.52%; for `CCCCN(C)C(=O)c1cc2c(Cl)nc3ccccc3c2s1`: 12.3%.
Turning to `O=C(c1c(F)cccc1F)N1CCCc2ccccc21`, the “hERG current change (%, negative = inhibition) at 1uM” value was 16.9%.
`Cc1ccccc1OCCC(=O)Nc1ccc(S(=O)(=O)N(C)C2CCN(C)CC2)cc1`: the “hERG current change (%, negative = inhibition) at 1uM” value amounted to 20.4%.
The same measure for `COc1ccc(CC(=O)N(C)Cc2ccc(C(C)(C)C)cc2)cc1S(=O)(=O)N1CCOCC1`: 5.58%.
In the case of `CCC1C(=O)N=C(SCC(=O)Nc2ccc(C)cc2)N(c2ccccc2)C1=O` (stereo not drawn), the “hERG current change (%, negative = inhibition) at 1uM” value was 10.2%.
The same measure for `COC(=O)CCC/C=C1\SC[C@@H](NC(=O)c2ccccc2)C1NC(C)=O` (stereo partly drawn): 12.5%.
The same measure for `CC(=O)NCCC(=O)N(Cc1ccccc1)c1nc2c(C)cccc2s1`: 7.17%; for `Cc1cc(NC(=O)CSc2nc3ccccc3c(=O)n2CCCC(=O)NCc2ccco2)n[nH]1`: 4.18%; for `CCn1c(C(O)c2ccccc2)nc2ccccc21` (stereo not drawn): 9.49%.
The same measure for `Cl.c1ccc(CNc2nc3ccccc3n2CCN2CCOCC2)nc1`: 10.1%.
For the compound `COc1ccccc1NC(=O)COn1nnc2ccc(S(=O)(=O)N3CCOCC3)cc21`, the “hERG current change (%, negative = inhibition) at 1uM” value was 9.73%.
As for `O=C(CSc1n[nH]c(=O)[nH]c1=O)Nc1ccc(C(=O)O)cc1`, the “hERG current change (%, negative = inhibition) at 1uM” value is listed as 12.8%.
The same measure for `c1cncc(-c2nc(NCc3cccs3)c3ccccc3n2)c1`: 8.51%; for `CC1(C)CC(C(CCN(Cc2ccccc2)C(=O)c2ccco2)c2ccc(F)cc2)CCO1` (stereo not drawn): 9.34%.
Take `Cc1cccc(C(=O)NC(=O)Nc2c(C)cc(C)nc2C)c1`: the “hERG current change (%, negative = inhibition) at 1uM” value came to 17%.
As for `COc1ccc(NC(=O)C2CCCCN2S(=O)(=O)c2ccc(F)cc2)c(OC)c1` (stereo not drawn), the “hERG current change (%, negative = inhibition) at 1uM” value was -0.017%.
For the compound `COc1cc(C(=S)N2CCOCC2)ccc1OC(=O)c1cc(OC)c(OC)c(OC)c1`, the “hERG current change (%, negative = inhibition) at 1uM” value was found to be 19.2%.
With `COc1ccc(C(=O)Nc2ccncc2)c(OC)c1`, the “hERG current change (%, negative = inhibition) at 1uM” value was 14.4%.
For `COc1ccccc1NC(=O)CSc1ccc2nnc(-c3ccccn3)n2n1`, the “hERG current change (%, negative = inhibition) at 1uM” value was found to be 9.85%.
As for `COc1ccc(OC)c(-n2c(O)c(/C=C3\C=Nc4ccccc43)c(=O)[nH]c2=O)c1`, the “hERG current change (%, negative = inhibition) at 1uM” value is 11.8%.
As to `O=C(Nc1ccc(F)cc1)c1oc2ccccc2c1NC(=O)C1CC1`, the “hERG current change (%, negative = inhibition) at 1uM” value turned out to be 2.98%.
`COc1ccc([N+](=O)[O-])cc1N(CC(=O)NCCSc1ccc(C)cc1)S(C)(=O)=O`: the “hERG current change (%, negative = inhibition) at 1uM” value was -1.7%.
For the compound `COc1ccccc1OCCSc1nc2ccccc2n1CCC(=O)O`, the “hERG current change (%, negative = inhibition) at 1uM” value was found to be 16.3%.
The same measure for `CCOC(=O)C1CCCN(C(=O)c2cc(-c3ccc(C)cc3)on2)C1` (stereo not drawn): -59.7%; for `CCCC(=O)Nc1ccc(C(=O)Nc2nnc(COCC)s2)cc1`: 13.7%.
The same measure for `O=C(Nc1ccc(O)cc1)c1cc2n(n1)C(C(F)(F)F)CC(c1ccco1)N2` (stereo not drawn): -1.55%.
